# Measurements: PubChem BioAssay AID504333 (National Center for Advancing Translational Sciences (NCATS), 2011)
# Screen size: about 360,000 compounds; about 16,000 (4.4%) were called active. The shares of active, inactive and inconclusive entries below differ from those in the screen. Calls follow the shape of the dose curve; as a rule, active = well fitted inhibition curve with a large enough effect; inconclusive = small, poorly fitted or top-dose-only effect; inactive = no such curve, though single readings can be large or run the other way. Where the call is inconclusive, the potency comes from a doubtful curve fit.
# Biological target: Bromodomain adjacent to zinc finger domain protein 2B (Homo sapiens) (UniProt Q9UIF8)
# Experiment: qHTS Assay for Inhibitors of BAZ2B; also: nearly all actives have a fitted effect of over 60% in size
# Conditions: AlphaScreen BAZ2B-H3K14Ac peptide displacement; series mostly up to 114 µM
# Procedure, shortened: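 AlphaScreen displacement of biotin-H3(5-23)K14Ac peptide (50 nM final) from BAZ2B (50 nM final) in PBS pH 7.4, 0.01% Tween-20; complex preformed 30 min RT, then compounds (top 110 uM) 30 min RT, beads 20 min dark.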
# Potency is read from the fitted curve at half-maximal effect; tags tell the direction and shape of the fitted curve.
# Sequence of UniProt Q9UIF8 (Q9UIF8 whole entry, looked up, the tested form may be a part): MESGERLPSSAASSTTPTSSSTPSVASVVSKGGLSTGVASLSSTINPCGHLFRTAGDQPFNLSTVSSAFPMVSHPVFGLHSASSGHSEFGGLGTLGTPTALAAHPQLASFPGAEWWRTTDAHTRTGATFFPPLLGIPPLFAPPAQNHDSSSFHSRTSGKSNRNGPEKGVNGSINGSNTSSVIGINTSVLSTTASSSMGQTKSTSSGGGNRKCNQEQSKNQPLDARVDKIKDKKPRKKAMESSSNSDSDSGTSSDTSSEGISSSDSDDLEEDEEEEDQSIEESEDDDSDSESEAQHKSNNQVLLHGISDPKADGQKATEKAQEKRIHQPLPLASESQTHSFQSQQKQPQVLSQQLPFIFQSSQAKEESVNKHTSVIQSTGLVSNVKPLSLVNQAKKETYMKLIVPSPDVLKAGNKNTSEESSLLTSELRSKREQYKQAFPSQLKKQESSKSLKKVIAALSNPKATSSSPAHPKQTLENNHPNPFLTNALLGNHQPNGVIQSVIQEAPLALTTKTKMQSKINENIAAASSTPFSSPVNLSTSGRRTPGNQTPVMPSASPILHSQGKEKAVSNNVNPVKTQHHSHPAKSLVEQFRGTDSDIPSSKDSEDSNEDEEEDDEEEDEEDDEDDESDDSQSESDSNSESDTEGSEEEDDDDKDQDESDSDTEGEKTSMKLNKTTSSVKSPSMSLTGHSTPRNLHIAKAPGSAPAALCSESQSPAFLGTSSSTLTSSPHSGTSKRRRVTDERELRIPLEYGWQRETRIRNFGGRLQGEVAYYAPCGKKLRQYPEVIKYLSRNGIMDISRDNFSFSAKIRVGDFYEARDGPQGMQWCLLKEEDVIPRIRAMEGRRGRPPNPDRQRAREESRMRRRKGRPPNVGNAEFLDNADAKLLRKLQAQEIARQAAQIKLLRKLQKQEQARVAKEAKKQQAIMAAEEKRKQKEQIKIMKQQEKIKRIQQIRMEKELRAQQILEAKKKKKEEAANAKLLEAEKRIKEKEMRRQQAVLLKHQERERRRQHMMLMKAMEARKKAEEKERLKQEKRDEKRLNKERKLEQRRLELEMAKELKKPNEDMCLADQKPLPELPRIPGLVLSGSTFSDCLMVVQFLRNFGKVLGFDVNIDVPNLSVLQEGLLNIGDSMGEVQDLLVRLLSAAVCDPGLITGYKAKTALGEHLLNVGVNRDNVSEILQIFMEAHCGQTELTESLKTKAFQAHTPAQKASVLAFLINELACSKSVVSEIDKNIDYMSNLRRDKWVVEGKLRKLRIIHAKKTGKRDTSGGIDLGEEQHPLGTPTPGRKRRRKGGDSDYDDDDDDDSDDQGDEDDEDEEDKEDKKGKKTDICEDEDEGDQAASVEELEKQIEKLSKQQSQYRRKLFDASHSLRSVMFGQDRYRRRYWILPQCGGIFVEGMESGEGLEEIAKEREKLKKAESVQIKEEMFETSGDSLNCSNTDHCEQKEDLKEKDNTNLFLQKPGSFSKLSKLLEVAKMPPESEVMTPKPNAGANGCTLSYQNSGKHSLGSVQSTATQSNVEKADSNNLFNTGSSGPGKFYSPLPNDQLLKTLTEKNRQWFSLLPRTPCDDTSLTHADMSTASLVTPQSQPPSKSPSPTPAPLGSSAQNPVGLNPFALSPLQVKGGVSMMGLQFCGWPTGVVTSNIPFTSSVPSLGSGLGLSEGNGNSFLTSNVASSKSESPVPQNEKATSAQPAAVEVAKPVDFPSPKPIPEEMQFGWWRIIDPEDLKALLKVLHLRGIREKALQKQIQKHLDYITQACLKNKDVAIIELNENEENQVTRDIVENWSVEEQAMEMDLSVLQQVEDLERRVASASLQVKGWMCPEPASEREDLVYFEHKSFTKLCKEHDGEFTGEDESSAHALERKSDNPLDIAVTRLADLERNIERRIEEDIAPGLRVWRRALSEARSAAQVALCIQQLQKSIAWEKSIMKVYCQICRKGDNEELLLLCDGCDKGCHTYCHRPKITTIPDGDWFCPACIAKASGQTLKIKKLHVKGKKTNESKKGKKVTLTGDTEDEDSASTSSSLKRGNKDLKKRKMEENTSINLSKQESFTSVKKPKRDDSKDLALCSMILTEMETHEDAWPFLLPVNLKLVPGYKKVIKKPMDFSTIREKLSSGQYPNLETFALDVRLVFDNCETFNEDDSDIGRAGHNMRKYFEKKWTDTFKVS
row,Compound,Potency
1,CNCc1ccccc1Sc1ccc(O)c(O)c1,"inconclusive: 50.1 µM [inhibitor, partial curve]"
2,CSc1nncn1/N=C/c1ccc([N+](=O)[O-])cc1,inactive
3,Cc1nc(C)c(-c2csc(Nc3ccc(O)c(C(=O)O)c3)n2)s1,"inconclusive: 39.8 µM [inhibitor, partial curve]"
4,COc1ccc(N=NC2C(=O)N(c3ccccc3)N=C2C)cc1 (stereo not drawn),active: 1.58 µM
5,Cc1ccc(-n2c(C)cc(/C=N\NC(=O)CC(=O)NC(C)C)c2C)cc1,inactive
6,Cc1cccc(NC(=S)N(CCCN2CCOCC2)Cc2cn(C)c3ccccc23)c1,"inconclusive: 89.1 µM [inhibitor, single point]"
7,CC(=O)c1cccc(S(=O)(=O)N2CCC(C(=O)NC3CCCC3)CC2)c1,"inconclusive: 79.4 µM [inhibitor, single point]"
8,O=C(O)/C=C/c1ccc(S(=O)(=O)NCc2cccnc2)cc1,inactive
9,C#CCN1C(=O)C(O)(CC(=O)c2ccc(OC)c(OC)c2)c2cc(Br)ccc21 (stereo not drawn),inactive
10,CC1(C)CC(Nc2ccc(C(F)(F)F)cc2[N+](=O)[O-])CC(C)(C)N1,inactive
11,Cc1nc(Oc2ccccc2C)c2oc3ccccc3c2n1,inactive
12,O=c1[nH]c(=O)c2nnc(N/N=C\c3ccc(O)cc3)nc2[nH]1,"inconclusive: 89.1 µM [inhibitor, single point]"
13,CCc1ccc(OCC(O)CN2CCN(c3ccccc3)CC2)cc1 (stereo not drawn),"inconclusive: 89.1 µM [inhibitor, single point]"
14,COc1ccc2c(c1)CC(C(=O)NCCN1CCN(c3cccc(Cl)c3)CC1)CO2 (stereo not drawn),"inconclusive: 44.7 µM [inhibitor, partial curve]"
15,CC1CCCCN1C(=O)Cn1c(=O)oc2cc(S(=O)(=O)N3CCCC3)ccc21 (stereo not drawn),"inconclusive: 4.47 µM [inhibitor, single point]"
16,CCC(=O)c1ccc(OCC(=O)OCC(=O)N2CCN(c3ccc(OC)cc3)CC2)cc1,inactive
17,COc1ccc(N2CCN(CCCNC(=O)c3ccc4nc(CCc5ccccc5)oc4c3)CC2)cc1,active: 31.6 µM
18,O=C(c1ccc2c(c1)OCCO2)N1CCN(Cc2ccccc2)CC1,"inconclusive: 89.1 µM [inhibitor, single point]"
19,O=C(Nc1ccc(N2CCCCC2)cc1)c1cc(S(=O)(=O)N2CCOCC2)ccc1F,"inconclusive: 89.1 µM [inhibitor, single point]"
20,Cc1ccc(-c2[nH]nc(N)c2N=Nc2ccccc2C)cc1,"inconclusive: 44.7 µM [inhibitor, full curve, poor fit]"
21,O=C(CSc1nc2ccc(NC(=O)c3ccccc3C(=O)O)cc2s1)Nc1ccc(F)c([N+](=O)[O-])c1,"inconclusive: 70.8 µM [inhibitor, partial curve]"
22,COC(=O)Cc1cc(=O)n2[nH]c(C)cc2n1,"inconclusive: 89.1 µM [inhibitor, single point]"
23,CNC(=O)c1sc2nc(-c3ccc(OC)cc3)cn2c1C,"inconclusive: 50.1 µM [inhibitor, partial curve]"
24,Cc1ccc(-c2cccc(CN3CCN(C(C)C)C(CCO)C3)c2)o1 (stereo not drawn),inactive

row,Compound,Potency
1,CC(C)C(=O)O/N=C(\N)c1ccccn1,inactive
2,O=C(Oc1ccccc1Cl)c1ccc(N2CCOCC2)c([N+](=O)[O-])c1,"inconclusive: 35.5 µM [inhibitor, partial curve]"
3,COCCNC(=O)c1ccc(C2SCC(=O)N2Cc2ccco2)cc1 (stereo not drawn),inactive
4,CCOC(=O)c1c(C)[nH]c(C)c1C(=O)CSc1nc2ccccc2n1CC,"inconclusive: 50.1 µM [inhibitor, partial curve]"
5,C/C(=N\Nc1nc(C(C)(C)C)cs1)c1ccccc1,"inconclusive: 39.8 µM [inhibitor, partial curve]"
6,C/C(=N\NC(=O)c1cc(-c2ccc(C)s2)[nH]n1)c1ccco1,"inconclusive: 79.4 µM [inhibitor, single point]"
7,COc1ccc2cc3c(N)nn(C(=O)c4ccc(F)cc4)c3nc2c1,inactive
8,CC1=NC(=O)C(N=Nc2ccccc2)N1c1ccccc1 (stereo not drawn),active: 8.91 µM
9,C/C(CC(=O)NCc1ccco1)=N\NC(=O)Cc1cccc2ccccc12,"inconclusive: 50.1 µM [inhibitor, partial curve]"
10,CCN(CC)c1ccc(NC(=O)CN(C)Cc2cccs2)cc1,active: 31.6 µM
11,O=C1C2CC=C(Cl)CC2C(=O)N1CCCCCCN1C(=O)C2CC=C(Cl)CC2C1=O (stereo not drawn),active: 44.7 µM
12,Cc1ccc(NC(=O)CSc2nnc3[nH]c(=O)cc(C)n23)cc1Cl,inactive
13,COCCN(C(=O)CSCc1ccccc1)c1c(N)n(Cc2ccccc2)c(=O)[nH]c1=O,inactive
14,NCCCC(N)(C(=O)O)C(F)F (stereo not drawn),"inconclusive: 100 µM [inhibitor, partial curve]"
15,CN(C)CCN1C(=O)C(=O)/C(=C(/O)c2ccc3c(c2)OCCO3)C1c1ccccn1 (stereo not drawn),active: 56.2 µM
16,CC(C)CCn1c(SCC(=O)Nc2ccccc2C(F)(F)F)nc2nccnc2c1=O,active: 79.4 µM
17,Fc1ccc(Oc2nc(-c3ccccn3)nc3ccccc23)cc1,inactive
18,Cc1ccc(/C=[N+](\[O-])c2ccc(N(C)C)cc2)c2nsnc12,active: 31.6 µM
19,COc1ccc(C)cc1NC(=O)Cn1c(=O)oc2ccccc21,"inconclusive: 89.1 µM [inhibitor, single point]"
20,CC(=O)N=c1c(C#N)cc2c(=O)n3cccc(C)c3nc2n1Cc1ccco1,inactive
21,COc1cccc2c(SCC(=O)N/N=C/c3ccc(O)c(O)c3)cc(C)nc12,"inconclusive: 28.2 µM [inhibitor, partial curve]"
22,COc1cc2c(cc1OC)C1(C)N(CC2)C(C(C)=O)=NN1c1ccc(Cl)cc1 (stereo not drawn),"inconclusive: 89.1 µM [inhibitor, single point]"
23,O=C(/C=C/c1ccco1)NC(=S)Nc1ccccc1N1CCOCC1,"inconclusive: 44.7 µM [inhibitor, partial curve]"
24,CCOC(=O)C1(CCOc2ccccc2)CCN(Cc2ccc(O)c(OCC)c2)CC1,inactive
